In PubChem BioAssay AID652104 (National Center for Advancing Translational Sciences (NCATS), 2013):
Where “and” joins values, the source holds several entries; their conditions need not be identical. Identical values can stand only once. Screen size: about 410,000 compounds; about 7,200 (1.8%) were called active. The shares of active, inactive and inconclusive entries below differ from those in the screen. Calls follow the shape of the dose curve; as a rule, active = well fitted activation curve with a large enough effect; inconclusive = small, poorly fitted or top-dose-only effect, or another doubt; inactive = no such curve, though single readings can be large or run the other way. Potencies of inconclusive entries are doubtful fits and often do not repeat.

Assay: qHTS of TDP-43 Inhibitors; also: nearly all actives have a fitted effect of over 50% in size; as to growth rescue (activation): % of control where 0% means no effect
Conditions: TDP-43 expressing yeast growth rescue, BacTiter-Glo, 24 h; growth rescue (activation): at 46.1 µM (top of the series) unless noted
How it was run: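 Cell-based yeast growth screen: TDP-43 expression induced in galactose, inoculum OD600=0.02 after raffinose pregrowth to mid-log. Read-out BacTiter-Glo luminescence at 24 hr, 30 deg C; inhibition of toxicity seen as signal increase.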
Potency is read from the fitted curve at half-maximal effect; tags tell the direction and shape of the fitted curve.

Q: For `Cc1cc(C)n2c(NCc3ccccc3)c(-c3cc4ccccc4o3)nc2n1`, which Potency is on record?
A: Its Potency is inconclusive: 11.2 µM [activator, partial curve].

Q: Which Potency does the source give for `Cc1ccc(SCC(=O)NCCSCc2ccccc2)cc1` here?
A: The Potency was inconclusive: 14.1 µM [activator, partial curve].

Q: With `CCOc1ccc(/C=C2\SC(N3CCc4ccccc4C3)=NC2=O)cc1` as the compound, how does the Potency read?
A: The Potency was inconclusive: 4.47 µM [activator, partial curve, poor fit].

Q: Which Potency does the source give for `CC(C)CCn1c(CN2CC(C)OC(C)C2)nc2c1c(=O)n(C)c(=O)n2C` (centres undefined) here?
A: Its Potency is inconclusive: 15.8 µM [activator, single point].

Q: With `CC1=C(C(=O)N2CCOCC2)CC(CC(=O)NCc2ccco2)C(=O)N1Cc1ccc(C(C)(C)C)cc1` (centres undefined) as the compound, how does the Potency read?
A: Its Potency is inconclusive: 31.6 µM [activator, single point].

Q: Which Potency does the source give for `CC(OC(=O)c1ccco1)C(=O)Nc1nc(-c2ccccc2)cs1` (centres undefined) here?
A: The Potency was inconclusive: 12.6 µM [activator, single point].

Q: For `COc1cc(CN2CCc3c([nH]c4ccccc34)C2)cc(OC)c1`, which Potency is on record?
A: Its Potency is inconclusive: 35.5 µM [activator, single point].

Q: With `Cn1nc(-c2ccccc2)c(CO)c1Oc1cccc(C(F)(F)F)c1` as the compound, how does the Potency read?
A: The Potency was active: 11.2 µM.

Q: Which Potency does the source give for `Cc1ccc(Nc2cc(C)nc(-c3ccccc3O)n2)cc1` here?
A: Its Potency is inconclusive: 2.51 µM [activator, full curve, poor fit].

Q: With `COc1ccc(CCNC(=O)CSc2nc3ccccc3nc2Cc2ccc(Cl)cc2)cc1OC` as the compound, how does the “growth rescue (activation)” value read?
A: The value was inactive: -7.01%.

Q: Which Potency does the source give for `CN(C)c1ccc(C(=O)Nc2nc3c(s2)CCCC3)cc1` here?
A: The Potency was inconclusive: 10 µM [activator, partial curve].

Q: With `Cn1c(Nc2ccc(Cl)cc2F)nc2cc(-c3ccccc3)sc2c1=O` as the compound, how does the Potency read?
A: The Potency was inconclusive: 0.562 µM [activator, full curve, poor fit].

Q: With `CC(=O)Oc1ccc(N2C(=O)C3C4C=CC(CO)(O4)C3C2=O)cc1` (centres undefined) as the compound, how does the growth rescue (activation) read?
A: The growth rescue (activation) was inconclusive: -91.4% [activator].

Q: With `CCOC(=O)c1cccc(NC(=O)c2cc3c(=O)n(Cc4cccnc4)ccc3nc2C)c1` as the compound, how does the “growth rescue (activation)” value read?
A: Its value is inactive: 2.07%.

Q: With `O=C(Nc1ccc(S(=O)(=O)Nc2cnc3ccccc3n2)cc1)c1cccc(OC(F)F)c1` as the compound, how does the Potency read?
A: Its Potency is inconclusive: 5.62 µM [activator, single point].

Q: With `Nc1nc(CSc2nnnn2-c2ccccc2)nc(N2CCCc3ccccc32)n1` as the compound, how does the Potency read?
A: Its Potency is inconclusive: 22.4 µM [activator, single point].

Q: For `CCCCOc1ccccc1NC(=O)Cn1c(-c2cncs2)nc2ccccc21`, which “growth rescue (activation)” value is on record?
A: The value was inactive: 2.32%.

Q: Which Potency does the source give for `COCCNC(=O)C1(C)CCCN(C(=O)c2ccc(F)c(Cl)c2)C1` (centres undefined) here?
A: Its Potency is inconclusive: 0.562 µM [activator, full curve, poor fit].

Q: Which Potency does the source give for `CC1CCN(C(=O)COc2ccc(Nc3ccccc3)cc2)CC1` here?
A: The Potency was inconclusive: 11.2 µM [activator, partial curve].

Q: For `CCOC(=O)c1ccccc1NC(=O)c1cccs1`, which Potency is on record?
A: Its Potency is inconclusive: 6.31 µM [activator, full curve].

Q: For `O=c1c2ccccc2nnn1Cc1ccccc1`, which Potency is on record?
A: The Potency was active: 17.8 µM.

Q: For `CCc1ccc(CN(C)C(=O)c2cc(COc3c(F)cccc3F)on2)cc1`, which Potency is on record?
A: The Potency was inconclusive: 35.5 µM [activator, single point].

Q: With `O=C(OCC(=O)N1CCN(c2ccccc2)CC1)c1cc(Br)ccc1Cl` as the compound, how does the Potency read?
A: Its Potency is inconclusive: 1.41 µM [activator, full curve].

Q: Which “growth rescue (activation)” value does the source give for `CCOc1cc(-c2ccc(OC(=O)c3ccc(Cl)cc3)c(OC)c2)cc(=O)c2c(C)oc(C)c12` here?
A: The value was inactive: 0%.

Q: Which Potency does the source give for `Cc1ccc(Nc2ncnc(Cl)c2N)cc1` here?
A: The Potency was active: 35.5 µM.

Q: Which “growth rescue (activation)” value does the source give for `O=C(Nc1cccc(F)c1)c1cccnc1NCCc1ccccc1` here?
A: Its value is inactive: 33.2%.

Q: For `CC(=O)c1ccc(N2CCN(c3ncnc4onc(-c5ccc(Cl)cc5)c34)CC2)cc1`, which Potency is on record?
A: The Potency was inconclusive: 0.251 µM [activator, full curve, poor fit].

Q: With `Cc1cccc(C(=O)OCC(=O)NC(C)CCc2ccccc2)c1` (centres undefined) as the compound, how does the Potency read?
A: Its Potency is inconclusive: 14.1 µM [activator, partial curve].

Q: Which Potency does the source give for `COc1c(C(=O)NNC(=O)c2ccccc2Cl)csc1Br` here?
A: The Potency was inconclusive: 35.5 µM [activator, partial curve].

Q: Which Potency does the source give for `Cc1cc(C)cc(NC(=O)CN(C)S(=O)(=O)c2cccc3nsnc23)c1` here?
A: Its Potency is inconclusive: 25.1 µM [activator, partial curve, poor fit].

Q: With `COc1ccc(S(=O)(=O)NCCS(=O)(=O)N2CCN(c3ccccc3F)CC2)cc1` as the compound, how does the “growth rescue (activation)” value read?
A: The value was inactive: 26.7%.

Q: For `CC(C)c1ccc(OCC(=O)NNC(=S)NC(=O)c2ccco2)c(Br)c1`, which Potency is on record?
A: Its Potency is active: 10 µM.

Q: With `Nc1nc2ccccc2cc1C(=O)NCc1ccc(-c2ccccc2)cc1` as the compound, how does the Potency read?
A: The Potency was inconclusive: 35.5 µM [activator, single point].

Q: Which “growth rescue (activation)” value does the source give for `COc1cc(/C=C/C(=O)OC(C)C(=O)Nc2c(C)n(C)n(-c3ccccc3)c2=O)ccc1O` (centres undefined) here?
A: Its value is inactive: 20.2%.

Q: For `COc1ccc(NC(=O)c2ccc3nc[nH]c3c2)cc1`, which “growth rescue (activation)” value is on record?
A: The value was inactive: 7.38%.

Q: With `CCc1ccccc1NC(=O)Cc1cn(C)c2ccccc12` as the compound, how does the Potency read?
A: Its Potency is inconclusive: 20 µM [activator, partial curve] and inconclusive: 6.31 µM [activator, full curve, poor fit].

Q: For `COc1cc(C(=O)Nc2cc(Cl)ccc2C)c(-n2cnnn2)cc1OC`, which Potency is on record?
A: The Potency was inconclusive: 0.562 µM [activator, full curve, poor fit].

Q: Which Potency does the source give for `COc1ccc(S(=O)(=O)Nc2ccc(F)cc2)c(C)c1C` here?
A: Its Potency is inconclusive: 12.6 µM [activator, single point].

Q: For `CC(=O)N1N=C2c3ccccc3CCC2C1c1ccc(F)cc1` (centres undefined), which Potency is on record?
A: The Potency was inconclusive: 12.6 µM [activator, partial curve].

Q: Which Potency does the source give for `Cc1ccc(Nc2ncnc3onc(C)c23)cc1Cl` here?
A: Its Potency is active: 35.5 µM.

Q: For `CN(C)/C=C/C(=O)c1cnc(-c2ccccc2Cl)s1`, which growth rescue (activation) is on record?
A: The growth rescue (activation) was inconclusive: -85.2% [activator].

Q: Which Potency does the source give for `CCOC(=O)C1=CCN(S(=O)(=O)c2ccccc2Br)C1c1ccccc1` (centres undefined) here?
A: Its Potency is inconclusive: 22.4 µM [activator, single point].

Q: With `CCOc1ccc(N=c2scc(-c3ccc(OC)cc3)n2CCO)cc1` as the compound, how does the Potency read?
A: Its Potency is inconclusive: 35.5 µM [activator, partial curve, poor fit].

Q: For `COc1cccc(C(=O)Nc2nc3nc(C)c(C)c(=O)n3[nH]2)c1`, which “growth rescue (activation)” value is on record?
A: The value was inactive: 9.5%.

Q: Which “growth rescue (activation)” value does the source give for `CCn1cc(C(=O)N2CCN(c3ccccc3)CC2)c(=O)c2cc(S(=O)(=O)N3CCCC3)ccc21` here?
A: Its value is inactive: 10.5%.

Q: For `O=C(Cc1ccc(Br)cc1)c1ccc(O)cc1O`, which Potency is on record?
A: Its Potency is inconclusive: 20 µM [activator, single point].

Q: With `OC(c1cc(Cl)cc(Cl)c1)c1ncc(-c2cccc(F)c2)[nH]1` (centres undefined) as the compound, how does the Potency read?
A: Its Potency is inconclusive: 28.2 µM [activator, partial curve].

Q: For `OC(COc1ccc2c(c1)CCC2)Cn1cnc2ccccc21` (centres undefined), which “growth rescue (activation)” value is on record?
A: Its value is inactive: 5.38%.

Q: With `Nn1c(Cc2cccc3ccccc23)nnc1SCc1ccc(Cl)c(Cl)c1` as the compound, how does the Potency read?
A: The Potency was inconclusive: 35.5 µM [activator, single point].

Q: With `CC(C)Oc1cccc(C(=O)Nc2nnc([C@@H]3C[C@H](O)[C@@H](CO)O3)s2)c1` as the compound, how does the Potency read?
A: The Potency was inconclusive: 1.12 µM [activator, full curve, poor fit].

Q: Which Potency does the source give for `CCC(=O)N1CCc2cc(CNC(=O)Nc3cc(C)ccc3C)ccc21` here?
A: The Potency was inconclusive: 7.08 µM [activator, partial curve].

Q: With `Oc1c(C(c2ccccc2Cl)N2CCOCC2)sc2nc(-c3ccco3)nn12` (centres undefined) as the compound, how does the “growth rescue (activation)” value read?
A: Its value is inactive: 3.8%.

Q: With `Cc1cccc(CNC(=O)CN2C(=O)C3CCCCN3c3ccc(C(=O)N4CCCC4)cc32)c1` (centres undefined) as the compound, how does the growth rescue (activation) read?
A: Its growth rescue (activation) is inactive: 0% [at 9.22 µM].

Q: With `COc1ccc([C@H]2CC(=O)C=C(c3ccccc3OC)C2)cc1OC` as the compound, how does the Potency read?
A: Its Potency is active: 20 µM.

Q: For `COc1ccc(-c2noc(CCC(=O)N3CCN(c4ccccc4OC)CC3)n2)cc1`, which Potency is on record?
A: Its Potency is inconclusive: 35.5 µM [activator, single point].

Q: For `c1ccc(-c2cc(CSc3nc4ccccc4[nH]3)on2)cc1`, which Potency is on record?
A: The Potency was active: 20 µM.

Q: Which “growth rescue (activation)” value does the source give for `CCOC(=O)c1c(C)[nH]c(C)c1S(=O)(=O)N1CCCC(C(=O)Nc2ccc(C)c(N(C)C)c2)C1` (centres undefined) here?
A: The value was inactive: 17.9%.

Q: With `COc1ccc(C(C(=O)Nc2c(C)cccc2C)n2c(=O)c(-c3ccccc3)nc3ccccc32)cc1` (centres undefined) as the compound, how does the Potency read?
A: The Potency was inconclusive: 11.2 µM [activator, partial curve].

Q: With `Cc1c(Cl)cccc1NC(=O)CSc1ncc(S(=O)(=O)c2ccc(C(C)C)cc2)c(=O)[nH]1` as the compound, how does the “growth rescue (activation)” value read?
A: Its value is inactive: 1.68%.

Q: For `CC(=O)CSc1ncnc2sc3c(c12)CCC3`, which Potency is on record?
A: The Potency was active: 25.1 µM.

Q: With `COC(=O)c1cnc(SCc2ccc(C)cc2)n1C` as the compound, how does the Potency read?
A: The Potency was inconclusive: 0.794 µM [activator, full curve].

Q: Which Potency does the source give for `CCOc1ccc(OCC(=O)Nc2ccccc2C(F)(F)F)cc1` here?
A: The Potency was inconclusive: 20 µM [activator, partial curve].

Q: For `COc1ccc(NS(=O)(=O)c2ccc(NC(=S)NC(=O)CC(C)C)cc2)cc1`, which Potency is on record?
A: Its Potency is inconclusive: 31.6 µM [activator, single point].

Q: For `COc1cccc(NC(=O)CSc2nccn2Cc2ccc3c(c2)OCO3)c1`, which Potency is on record?
A: The Potency was inconclusive: 35.5 µM [activator, partial curve, poor fit].

Q: For `O=c1c2ccccc2nnn1CCc1ccccc1`, which Potency is on record?
A: The Potency was inconclusive: 11.2 µM [activator, partial curve].

Q: For `CC(=O)N1CCN(c2nc3c(C)ccc(Cl)c3s2)CC1`, which Potency is on record?
A: Its Potency is inconclusive: 1.12 µM [activator, full curve].

Q: Which Potency does the source give for `Cc1ccc(NC(=O)c2ccco2)cc1` here?
A: Its Potency is inconclusive: 6.31 µM [activator, partial curve].

Q: For `O=C(COC(=O)/C=C/c1ccc(OC(F)F)cc1)NC1CCCC1`, which Potency is on record?
A: The Potency was inconclusive: 17.8 µM [activator, partial curve].

Q: For `O=C1C=C(c2ccccc2)C(=O)N1Nc1ccccc1`, which growth rescue (activation) is on record?
A: Its growth rescue (activation) is inconclusive: -91.2% [activator].
